# Experimental data reported in the supplement of paper PMC12217912.
# This is one part of the list. The full chains were built here from the parent and the listed change. Inactive controls read about 0.05.
# B1: TEV protease; numbered along this chain (parent)
# chain: MGESLFKGPRDYNPISSSICHLTNESDGHTTSLYGIGFGPFIITNKHLFRRNNGTLVVQSLHGVFKVKDTTTLQQHLVDGRDMIIIRMPKDFPPFPQKLKFREPQREERICLVTTNFQTKSMSSMVSDTSCTFPSGDGIFWKHWIQTKDGQCGSPLVSTRDGFIVGIHSASNFTNTNNYFTSVPKNFMELLTNQEAQQWVSGWRLNADSVLWGGHKVFMVKPEEPFQPVKEATQL
# Variants of: B1
# Assay: raw area under fraction-flipped curve 0-4 h after induction (AUC4h, not background-subtracted), DNA-recorder readout of cleavage of the substrate (dimensionless); higher = more cleavage of the substrate by the protease variant
# Conditions: temperature: 34 °C; time window: 0-4 h after rhamnose induction
# Method: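 In vivo DNA recorder in E. coli TOP10(DE3) ΔrhaA at 34 °C. Each TEVp single-site mutant (parent TEVp 0) is paired with a single-site variant of the 7-mer TEVs (canonical ENLYFQ|S). The substrate sits between flexible linkers in a Bxb1-sfGFP-TEVs-SsrA fusion, so cleavage stabilises Bxb1 and speeds flipping of a recombination array, read by NGS. The value is the raw area under the fraction-flipped curve over 0-4 h after rhamnose induction (AUC4h), with ≥20 reads per time point. It is not background-subtracted; inactive controls average about 0.047.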
# 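Also: Bxb1 expression induced with 0.2% (w/v) L-rhamnose at OD600 near 0.5, cultures sampled hourly, flipped fraction per protease–substrate barcode pair counted by paired-end Illumina sequencing.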
variant,measurement,value
L33G,area with substrate ENLYFAS,0.0694
same,area with substrate ENLYFDS,0.0604
same,area with substrate ENLYFES,0.0764
same,area with substrate ENLYFFS,0.0677
same,area with substrate ENLYFHS,0.0411
same,area with substrate ENLYFIS,0.0607
same,area with substrate ENLYFKS,0.0614
same,area with substrate ENLYFMS,0.0603
same,area with substrate ENLYFPS,0.0602
same,area with substrate ENLYFSS,0.0544
same,area with substrate ENLYFWS,0.0613
same,area with substrate ENLYFYS,0.0577
L33W,area with substrate ENLYFAS,0.0619
same,area with substrate ENLYFCS,0.0531
same,area with substrate ENLYFES,0.0619
same,area with substrate ENLYFFS,0.0677
same,area with substrate ENLYFGS,0.0725
same,area with substrate ENLYFHS,0.0546
same,area with substrate ENLYFIS,0.0622
same,area with substrate ENLYFKS,0.0493
same,area with substrate ENLYFLS,0.0566
same,area with substrate ENLYFMS,0.0609
same,area with substrate ENLYFNS,0.0533
same,area with substrate ENLYFPS,0.0644
same,area with substrate ENLYFRS,0.0711
same,area with substrate ENLYFSS,0.0607
same,area with substrate ENLYFTS,0.0521
same,area with substrate ENLYFVS,0.0533
same,area with substrate ENLYFWS,0.0644
same,area with substrate ENLYFYS,0.0474
G35W,area with substrate ENLYFAS,0.0513
same,area with substrate ENLYFDS,0.0483
same,area with substrate ENLYFES,0.0416
same,area with substrate ENLYFFS,0.0462
same,area with substrate ENLYFIS,0.0538
same,area with substrate ENLYFMS,0.0472
same,area with substrate ENLYFNS,0.0547
same,area with substrate ENLYFPS,0.0435
same,area with substrate ENLYFRS,0.0586
same,area with substrate ENLYFWS,0.0483
same,area with substrate ENLYFYS,0.0441
I36F,area with substrate ENLYFAS,0.0223
same,area with substrate ENLYFCS,0.0538
same,area with substrate ENLYFDS,0.0236
same,area with substrate ENLYFES,0.0422
same,area with substrate ENLYFFS,0.0624
same,area with substrate ENLYFGS,0.0692
same,area with substrate ENLYFIS,0.0508
same,area with substrate ENLYFKS,0.0451
same,area with substrate ENLYFMS,0.0659
same,area with substrate ENLYFNS,0.0608
same,area with substrate ENLYFPS,0.0552
same,area with substrate ENLYFRS,0.0388
same,area with substrate ENLYFSS,0.0586
same,area with substrate ENLYFTS,0.0506
same,area with substrate ENLYFWS,0.0548
same,area with substrate ENLYFYS,0.0505
G37M,area with substrate ENLYFAS,0.0549
same,area with substrate ENLYFCS,0.0505
same,area with substrate ENLYFDS,0.0368
same,area with substrate ENLYFES,0.0564
same,area with substrate ENLYFGS,0.045
same,area with substrate ENLYFIS,0.0537
same,area with substrate ENLYFKS,0.0558
same,area with substrate ENLYFMS,0.0668
same,area with substrate ENLYFNS,0.051
same,area with substrate ENLYFPS,0.0683
same,area with substrate ENLYFRS,0.0521
same,area with substrate ENLYFVS,0.0588
same,area with substrate ENLYFWS,0.0488
G37V,area with substrate ENLYFAS,0.0538
same,area with substrate ENLYFCS,0.0799
same,area with substrate ENLYFDS,0.0528
same,area with substrate ENLYFES,0.057
same,area with substrate ENLYFFS,0.0533
same,area with substrate ENLYFIS,0.0656
same,area with substrate ENLYFKS,0.0437
same,area with substrate ENLYFLS,0.0427
same,area with substrate ENLYFMS,0.0602
same,area with substrate ENLYFNS,0.0539
same,area with substrate ENLYFPS,0.0582
same,area with substrate ENLYFRS,0.0597
same,area with substrate ENLYFSS,0.0384
same,area with substrate ENLYFTS,0.0546
same,area with substrate ENLYFVS,0.0372
same,area with substrate ENLYFWS,0.0633
same,area with substrate ENLYFYS,0.0595
F38N,area with substrate ENLYFAS,0.0546
same,area with substrate ENLYFES,0.0296
same,area with substrate ENLYFHS,0.0504
same,area with substrate ENLYFIS,0.0544
same,area with substrate ENLYFKS,0.0536
same,area with substrate ENLYFMS,0.0396
same,area with substrate ENLYFNS,0.0587
same,area with substrate ENLYFPS,0.0553
same,area with substrate ENLYFRS,0.0453
same,area with substrate ENLYFTS,0.034
same,area with substrate ENLYFYS,0.044
F38T,area with substrate ENLYFAS,0.0666
same,area with substrate ENLYFCS,0.0504
same,area with substrate ENLYFDS,0.0604
same,area with substrate ENLYFES,0.06
same,area with substrate ENLYFFS,0.0606
same,area with substrate ENLYFGS,0.0592
same,area with substrate ENLYFHS,0.0569
same,area with substrate ENLYFIS,0.0529
same,area with substrate ENLYFKS,0.0578
same,area with substrate ENLYFLS,0.0516
same,area with substrate ENLYFMS,0.0489
same,area with substrate ENLYFNS,0.0553
same,area with substrate ENLYFPS,0.0568
same,area with substrate ENLYFRS,0.05
same,area with substrate ENLYFSS,0.0595
same,area with substrate ENLYFTS,0.0631
same,area with substrate ENLYFVS,0.0424
same,area with substrate ENLYFWS,0.057
same,area with substrate ENLYFYS,0.0609
G39C,area with substrate ENLYFAS,0.0427
same,area with substrate ENLYFCS,0.0375
same,area with substrate ENLYFDS,0.0418
same,area with substrate ENLYFES,0.0376
same,area with substrate ENLYFFS,0.0461
same,area with substrate ENLYFGS,0.0399
same,area with substrate ENLYFIS,0.0419
same,area with substrate ENLYFKS,0.0479
same,area with substrate ENLYFLS,0.0457
same,area with substrate ENLYFMS,0.0476
same,area with substrate ENLYFNS,0.0457
same,area with substrate ENLYFPS,0.0502
same,area with substrate ENLYFRS,0.0183
same,area with substrate ENLYFSS,0.0438
same,area with substrate ENLYFTS,0.0488
same,area with substrate ENLYFWS,0.0465
same,area with substrate ENLYFYS,0.0417
G39N,area with substrate ENLYFAS,0.0515
same,area with substrate ENLYFCS,0.0415
same,area with substrate ENLYFES,0.037
same,area with substrate ENLYFFS,0.0374
same,area with substrate ENLYFIS,0.0359
same,area with substrate ENLYFKS,0.0412
same,area with substrate ENLYFLS,0.0257
same,area with substrate ENLYFMS,0.0566
same,area with substrate ENLYFNS,0.0336
same,area with substrate ENLYFPS,0.0389
same,area with substrate ENLYFTS,0.0197
same,area with substrate ENLYFVS,0.0205
same,area with substrate ENLYFWS,0.0335
same,area with substrate ENLYFYS,0.0333
I42Q,area with substrate ENLYFAS,0.0406
same,area with substrate ENLYFES,0.0508
same,area with substrate ENLYFFS,0.0459
same,area with substrate ENLYFIS,0.0472
same,area with substrate ENLYFKS,0.0724
same,area with substrate ENLYFMS,0.0413
same,area with substrate ENLYFRS,0.0429
same,area with substrate ENLYFWS,0.0466
I43W,area with substrate ENLYFAS,0.0295
same,area with substrate ENLYFCS,0.037
same,area with substrate ENLYFES,0.0404
same,area with substrate ENLYFFS,0.0479
same,area with substrate ENLYFIS,0.0533
same,area with substrate ENLYFKS,0.0635
same,area with substrate ENLYFMS,0.0388
same,area with substrate ENLYFNS,0.0501
same,area with substrate ENLYFPS,0.0518
same,area with substrate ENLYFRS,0.043
same,area with substrate ENLYFVS,0.0627
same,area with substrate ENLYFWS,0.0347
